In one experiment the target is T1, δ-opioid receptor (Rattus norvegicus, UniProt P33533).
T1 construct: the forebrains are homogenized in Tris buffer in a Teflon®-glass homogenizer; from tissue; host or cells: forebrain of male Wistar rats (particulate membrane preparation)
T1 sequence (P33533 whole entry): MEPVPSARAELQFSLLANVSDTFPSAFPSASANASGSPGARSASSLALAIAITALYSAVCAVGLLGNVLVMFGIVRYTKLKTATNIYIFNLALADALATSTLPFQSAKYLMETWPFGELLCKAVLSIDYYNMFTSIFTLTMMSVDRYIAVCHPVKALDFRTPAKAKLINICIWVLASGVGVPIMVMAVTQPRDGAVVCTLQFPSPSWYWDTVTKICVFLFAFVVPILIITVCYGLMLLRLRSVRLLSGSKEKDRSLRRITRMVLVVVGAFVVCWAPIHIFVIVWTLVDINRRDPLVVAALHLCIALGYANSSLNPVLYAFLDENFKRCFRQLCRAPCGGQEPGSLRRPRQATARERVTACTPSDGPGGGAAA
The conditions noted are these: DOR binding Ki, rat brain δ opioid receptor binding; 10 nM solutions of the compounds.
Compound `CCNC(=O)c1ccc(C(=C2CC3CCC(C2)N3Cc2ccoc2)c2nnn[nH]2)cc1` [Cpd 144] showed a Ki of 82.5 nM.
In turn, `CCNC(=O)c1ccc(C(C#N)=C2CC3CCC(C2)N3)cc1` [Cpd 145] gave a Ki of 941 nM.
Take `CCNC(=O)c1ccc(C(=C2CC3CCC(C2)N3Cc2ccsc2)c2nnn[nH]2)cc1` [Cpd 148]: the Ki amounted to 136 nM.
Same read-out and setting: then `CCNC(=O)c1ccc(C(=C2CC3CCC(C2)N3CCc2ccccc2)c2nnn[nH]2)cc1` [Cpd 149], with 192 nM.
Same read-out and setting: then `CCNC(=O)c1ccc(C(=C2CC3CCC(C2)N3Cc2nccs2)c2nnn[nH]2)cc1` [Cpd 150], with 349 nM; and `CCNC(=O)c1ccc(C(=C2CC3CCC(C2)N3)c2nnn[nH]2)cc1` [Cpd 151], with 260 nM; and `CCNC(=O)c1ccc(C(=C2CC3CCC(C2)N3Cc2ccoc2)c2cc(C(=O)O)cc([N+](=O)[O-])c2)cc1` [Cpd 152], with 0.94 nM.
Take `CCNC(=O)c1ccc(C(=C2CC3CCC(C2)N3Cc2ccoc2)c2cccc(CN)c2)cc1` [Cpd 153]: the Ki worked out at 19.6 nM.
Same read-out and setting: the result for `CCNC(=O)c1ccc(C(=C2CC3CCC(C2)N3Cc2ccccn2)c2cc(C(=O)O)cc([N+](=O)[O-])c2)cc1` [Cpd 154] reads 34.3 nM.
The same measure, in the same setting: then `CCNC(=O)c1ccc(C(=C2CC3CCC(C2)N3CC=C(C)C)c2cc(C(=O)O)cc([N+](=O)[O-])c2)cc1` [Cpd 155], with 3.05 nM; and `CCNC(=O)c1ccc(C(=C2CC3CCC(C2)N3CC=C(C)C)c2cccc(CN)c2)cc1` [Cpd 156], with 35.6 nM.
For `CCNC(=O)c1ccc(C(=C2CC3CCC(C2)N3CCc2ccccc2)c2cc(C(=O)O)cc([N+](=O)[O-])c2)cc1` [Cpd 157], the Ki is 13.2 nM.
On the same count and under the same terms, then `CCNC(=O)c1ccc(C(=C2CC3CCC(C2)N3CCc2ccccc2)c2cccc(CN)c2)cc1` [Cpd 158], with 163 nM; and `CCNC(=O)c1ccc(C(=C2CC3CCC(C2)N3Cc2nccs2)c2cc(C(=O)O)cc([N+](=O)[O-])c2)cc1` [Cpd 159], with 77.4 nM; and `CCNC(=O)c1ccc(C(=C2CC3CCC(C2)N3Cc2nccs2)c2cccc(CN)c2)cc1` [Cpd 160], with 86.2 nM.
The same measure, in the same setting: the result for `CCNC(=O)c1ccc(C(=C2CC3CCC(C2)N3Cc2ccsc2)c2cc(C(=O)O)cc([N+](=O)[O-])c2)cc1` [Cpd 161] reads 1.26 nM; that for `CCNC(=O)c1ccc(C(=C2CC3CCC(C2)N3Cc2ccsc2)c2cccc(CN)c2)cc1` [Cpd 162], 7.23 nM.
Turning to `CCNC(=O)c1ccc(C(=C2CC3CCC(C2)N3CC=C(C)C)c2cccc(-c3nnn[nH]3)c2)cc1` [Cpd 163], the affinity, expressed as Ki, was 0.99 nM.
Same read-out and setting: then `CCNC(=O)c1ccc(C(=C2CC3CCC(C2)N3Cc2ccco2)c2cccc(-c3nnn[nH]3)c2)cc1` [Cpd 164, N-ethyl-4{(8-furan-2-ylmethyl-8-aza-bicyclo[3.2.1]oct-3-ylidene)-[3-(1H-tetrazol-5-yl)-phenyl]-methyl}-benzamide], with 1.23 nM.
Same read-out and setting: then `CCNC(=O)c1ccc(C(=C2CC3CCC(C2)N3Cc2ccccn2)c2cccc(-c3nnn[nH]3)c2)cc1` [Cpd 165], with 1.62 nM; and `CCNC(=O)c1ccc(C(=C2CC3CCC(C2)N3CCc2ccccc2)c2cccc(-c3nnn[nH]3)c2)cc1` [Cpd 166], with 23.2 nM; and `CCNC(=O)c1ccc(C(=C2CC3CCC(C2)N3Cc2nccs2)c2cccc(-c3nnn[nH]3)c2)cc1` [Cpd 167], with 8.91 nM.
Compound `CCNC(=O)c1ccc(C(=C2CC3CCC(C2)N3Cc2cccs2)c2cccc(-c3nnn[nH]3)c2)cc1` [Cpd 168] returned a Ki of 0.18 nM.
The same measure, in the same setting: then `CCNC(=O)c1ccc(C(=C2CC3CCC(C2)N3Cc2ccsc2)c2cccc(-c3nnn[nH]3)c2)cc1` [Cpd 169], with 0.74 nM; and `CCNC(=O)c1ccc(C(=C2CC3CCC(C2)N3Cc2nccs2)c2ccc(C(=O)O)cc2)cc1` [Cpd 174], with 2.34 nM.
The same measure, in the same setting: then `CCNC(=O)c1ccc(C(=C2CC3CCC(C2)N3Cc2ccsc2)c2cccc(C(=O)O)c2)cc1` [Cpd 175], with 1.31 nM; and `CCNC(=O)c1ccc(C(=C2CC3CCC(C2)N3Cc2ccsc2)c2ccc(C(=O)O)cc2)cc1` [Cpd 176], with 1.08 nM; and `CCNC(=O)c1ccc(C(=C2CC3CCC(C2)N3Cc2ccoc2)c2ccc(C(N)=O)cc2)cc1` [Cpd 177], with 3.91 nM.
On the same count and under the same terms, the result for `CCNC(=O)c1ccc(C(=C2CC3CCC(C2)N3Cc2ccoc2)c2cccc(CO)c2)cc1` [Cpd 178] reads 0.15 nM; that for `CCNC(=O)c1ccc(C(=C2CC3CCC(C2)N3Cc2ccco2)c2cccc(CO)c2)cc1` [Cpd 179], 1.53 nM.
`CCNC(=O)c1ccc(C(=C2CC3CCC(C2)N3Cc2ccco2)c2ccc(C(N)=O)cc2)cc1` [Cpd 180]: the Ki turned out to be 0.98 nM.
On the same count and under the same terms, the result for `CCNC(=O)c1ccc(C(=C2CC3CCC(C2)N3Cc2ccccn2)c2cccc(CO)c2)cc1` [Cpd 181] reads 1.74 nM; that for `CCNC(=O)c1ccc(C(=C2CC3CCC(C2)N3Cc2ccccn2)c2ccc(NS(C)(=O)=O)cc2)cc1` [Cpd 182], 0.52 nM; that for `CCNC(=O)c1ccc(C(=C2CC3CCC(C2)N3CCc2ccccc2)c2ccc(NS(C)(=O)=O)cc2)cc1` [Cpd 185], 30.2 nM.
Same read-out and setting: then `CCNC(=O)c1ccc(C(=C2CC3CCC(C2)N3Cc2nccs2)c2cccc(CO)c2)cc1` [Cpd 186], with 3.9 nM; and `CCNC(=O)c1ccc(C(=C2CC3CCC(C2)N3Cc2nccs2)c2ccc(NS(C)(=O)=O)cc2)cc1` [Cpd 187], with 1.44 nM.
The same measure, in the same setting: then `CCNC(=O)c1ccc(C(=C2CC3CCC(C2)N3Cc2ccsc2)c2cccc(CO)c2)cc1` [Cpd 189], with 14.2 nM; and `CCNC(=O)c1ccc(C(=C2CC3CCC(C2)N3Cc2ccsc2)c2ccc(NS(C)(=O)=O)cc2)cc1` [Cpd 190], with 0.219 nM.
Turning to `CCNC(=O)c1ccc(C(=C2CC3CCC(C2)N3Cc2ccsc2)c2ccc(C(N)=O)cc2)cc1` [Cpd 191], the Ki is 12 nM.
On the same count and under the same terms, then `CCNC(=O)c1ccc(C(=C2CC3CCC(C2)N3Cc2ccco2)c2ccc(CO)cc2)cc1` [Cpd 192], with 2.74 nM; and `CCNC(=O)c1ccc(C(=C2CC3CCC(C2)N3Cc2ccccn2)c2ccc(CO)cc2)cc1` [Cpd 193], with 3.22 nM; and `CCNC(=O)c1ccc(C(=C2CC3CCC(C2)N3Cc2nccs2)c2ccc(CO)cc2)cc1` [Cpd 195], with 7.51 nM.
Still for that read-out and setting: then `CCN(CC)C(=O)c1ccc(C(=C2CC3CCC(C2)N3C#N)c2ccccc2)cc1` [Cpd 197, 4-[(8-cyano-8-aza-bicyclo[3.2.1]oct-3-ylidene)-phenyl-methyl]-N,N-diethylbenzamide], with 5270 nM; and `CCN(CC)C(=O)c1ccc(C(=C2CC3CCC(C2)N3C(=N)N)c2ccccc2)cc1` [Cpd 198, 4-[(8-Carbamimidoyl-8-aza-bicyclo[3.2.1]oct-3-ylidene)-phenyl-methyl]-N,N-diethyl-benzamide], with 5.75 nM.
Same read-out and setting: then `CCN(CC)C(=O)c1ccc(C(=C2CC3CCC(C2)N3C=O)c2ccccc2)cc1` [Cpd 199], with 136 nM; and `CCNC(=O)c1ccc(C(=C2CC3CCC(C2)N3C(=O)Cc2ccccc2)c2cccnc2)cc1` [Cpd 200, N-Ethyl-4-[(8-phenylacetyl-8-aza-bicyclo[3.2.1]oct-3-ylidene)-pyridin-3-yl-methyl]-benzamide], with 5230 nM.
In turn, `CCNC(=O)c1ccc(C(=C2CC3CCC(C2)N3Cc2ccsc2)c2ccc(CO)cc2)cc1` [Cpd 205] yielded a Ki of 2.04 nM.
`CCNC(=O)c1ccc(C(=C2CC3CCC(C2)N3C(=O)c2cccs2)c2cccnc2)cc1` [Cpd 208, N-Ethyl-4-{pyridin-3-yl-[8-(thiophene-2-carbonyl)-8-aza-bicyclo[3.2.1]oct-3-ylidene]-methyl}-benzamide] showed a Ki of 1330 nM.

The same experiment, now with this note: rat brain δ opioid receptor binding; 10 nM solutions of the compounds; read-out: DOR binding Ki.
Take `CCNC(=O)c1ccc(C(=C2CC3CCC(C2)N3CC=C(C)C)c2nnn[nH]2)cc1` [Cpd 147]: the Ki came to 58.4 nM.
Same read-out and setting: then `CCNC(=O)c1ccc(C(=C2CC3CCC(C2)N3Cc2ccoc2)c2cccc(-c3nnn[nH]3)c2)cc1` [Cpd 170], with 0.73 nM; and `CCNC(=O)c1ccc(C(=C2CC3CCC(C2)N3C(=O)OCC)c2ccc(O)c(OC)c2)cc1` [Cpd 172, 3-[(4-Ethylcarbamoyl-phenyl)-(4-hydroxy-3-methoxy-phenyl)-methylene]-8-aza-bicyclo[3.2.1]octane-8-carboxylic acid ethyl ester], with 5150 nM.
For `CCNC(=O)c1ccc(C(=C2CC3CCC(C2)N3C(=O)OCC)c2cc(C)c(O)c(C)c2)cc1` [Cpd 173, 3-[(4-Ethylcarbamoyl-phenyl)-(4-hydroxy-3,5-dimethyl-phenyl)-methylene]-8-aza-bicyclo[3.2.1]octane-8-carboxylic acid ethyl ester], the Ki is 932 nM.
Turning to `CCNC(=O)c1ccc(C(=C2CC3CCC(C2)N3Cc2ccccn2)c2ccc(C(N)=O)cc2)cc1` [Cpd 183], the Ki is 36.9 nM.
The same measure, in the same setting: the result for `CCNC(=O)c1ccc(C(=C2CC3CCC(C2)N3Cc2nccs2)c2ccc(C(N)=O)cc2)cc1` [Cpd 188] reads 53.9 nM.
The same measure, in the same setting: then `CCNC(=O)c1ccc(C(=C2CC3CCC(C2)N3CC=C(C)C)c2ccc(CO)cc2)cc1` [Cpd 194], with 1.38 nM.

These data come from patent US20050004163A1, “3-(diarylmethylene)-8-azabicyclo[3.2.1]octane derivatives” (priority 2000, published 2005).
